# Data taken from PubChem BioAssay (NCI).
# “And” between values parts separate entries of the source, which are not always exact repeats. Equal values may be shown once.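 Briefly, cells in 96-well plates were exposed to five compound concentrations for 48 h, and endpoints were estimated by linear interpolation. Here, GI50 denotes the concentration required for 50% inhibition of growth. TGI is the concentration that stops growth completely.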
# Test system: NCI-H322M lung
# Assay: DTP human tumour cell line panel, 48 h
Structure (SMILES),GI50,TGI
O=C(c1cccs1)c1c(C(F)(F)F)n([O-])c2cc(F)c(F)cc2[n+]1=O,3.69 µM,9.65 µM
NC(N)=NC(N)=NCCc1ccccc1,> 100 µM,> 100 µM
CCOC(=O)c1cc(C(=O)c2cc(OC)cc(OC)c2)n2ncccc12,8.32 µM,> 100 µM
CS(=O)(=O)c1ccc(C(F)(F)F)cc1NC(=O)Nc1cnc(Oc2ccc(-c3cc(Cl)cnc3N)cc2)nc1,2.69 µM,17 µM
Cc1cccc(C)c1NC(=S)/N=C/C1=C(O)c2ccccc2C1=O,–,> 100 µM
CC(=O)OC1CC(OC2C(O)CC(OC3C(O)CC(OC4CCC5(C)C(CCC6C5CC(O)C5(C)C(C7=CC(=O)OC7)CCC65O)C4)OC3C)OC2C)OC(C)C1O (stereo unspecified) (tested in a mixture with another compound),–,0.119 µM
CSC(=S)NN=C1CCCCC1,–,53 µM
O=C1CCC(=O)c2cc(Br)ccc2N1,–,> 100 µM
CCCCCCCCCCCCCCCCCC(=O)NCCCNCCCNC(=O)CCCCCCCCCCCCCCCCC,–,> 100 µM
COC(=O)[C@]1(c2cc3ccccc3n2S(=O)(=O)c2ccccc2)CC2CCC1NC2 (stereo partly specified),–,31.5 µM
O=[N+]([O-])c1cc(Cl)ccc1S(=O)(=O)c1ccccc1,–,> 100 µM
COc1cc(/C=C2\C(=O)N(c3c(Cl)cccc3Cl)c3ccccc32)cc(OC)c1O,1.93 µM,15.4 µM
COc1cc2cc(C(=O)O)[nH]c2cc1OCc1ccccc1,> 100 µM,> 100 µM
NC(=O)c1c(OCc2c(F)cc(Br)cc2F)nsc1NC(=O)NCCCCN1CCCC1,3.26 µM,> 10 µM
COCCN1C2=CCCCC2=Nc2c(N)nc(N)nc21,–,> 100 µM
C#C[C@]1(O)CC[C@H]2[C@@H]3CC=C4c5nc(Nc6ccc(OC)cc6OC)sc5CC[C@]4(C)[C@H]3CC[C@@]21C,2.72 µM,23.1 µM
Cc1ccccc1NC(=O)C(=O)Cc1nc2ccccc2s1,–,> 100 µM
Oc1cccc(C2SCc3nc4ccccc4n32)c1 (stereo unspecified),–,> 100 µM
C=CCC1(O)c2cccc(O)c2C(=O)c2c(O)cccc21,–,> 100 µM
Nc1ncnc2c1ncn2CC(OCP(=O)(O)O)Oc1ccccc1 (stereo unspecified),–,> 100 µM
COc1cc2c[n+](C)c3c4ccccc4ccc3c2cc1OC,–,47.2 µM

Structure (SMILES),GI50,TGI
Cc1ccc(NC(=O)SCCC(=O)O)cc1NC(=O)SCCC(=O)O,–,> 100 µM
CC1CC2C3CC(F)C4=CC(=O)C=CC4(C)C3(F)C(O)CC2(C)C1(O)C(=O)CO (stereo unspecified),–,> 100 µM
O=C1C=C(Br)C(=O)C(Br)=C1,–,> 100 µM
OCCOCCO[P+]1(OCCOCCO)n2c3ccc2C(c2ccccc2)=C2C=CC(=N2)C(c2ccccc2)=c2ccc(n21)=C(c1ccccc1)C1=NC(=C3c2ccccc2)C=C1,–,1.11 µM
C/C=C/C=C/[C@H]1Cc2cc(O)cc(O)c2O1,–,> 100 µM
N#Cc1c(NC(=O)CCC(=O)O)ccc2ccccc12,–,> 100 µM
OC[C@H]1CC(c2nn[nH]n2)[C@H](O)[C@@H]1O (stereo partly specified),–,> 100 µM
COc1cc2cc(C(=O)N3CC(COS(C)(=O)=O)c4c3cc([N+](=O)[O-])c3ccccc43)[nH]c2c(OC)c1OC (stereo unspecified),–,> 100 µM
c1ccc2cc3n[se]nc3cc2c1,–,> 100 µM
COC(=O)c1ccccc1CC1Cc2cc3c(cc2C1)CCC3,–,> 100 µM
CN1c2ccccc2C2c3c(O)ccc(O)c3C=C([N+](=O)[O-])C21 (stereo unspecified),–,6.13 µM
CCCNc1[nH]c(C(C)=O)c(N)c1C(=S)Nc1ccccc1,–,> 100 µM
C=CCSc1nn(CC=C)cc2ncnc1-2,–,> 100 µM
Cc1ccc2c(c1)NC(=O)C(N=[N+]=[N-])(c1ccccc1)C2=O (stereo unspecified),–,> 100 µM
O=S(=O)(Nc1ccc(Cl)c(C(F)(F)F)c1)c1ccc(-c2cnc(C3CC3)o2)cc1,1.63 µM,8.91 µM
O=[N+]([O-])C(=C1Nc2ccccc2N1)C(Cl)=C(Cl)Cl,–,> 100 µM
CC/C(=C(\c1ccc(O)cc1)c1ccc(OCCNC)cc1)c1ccccc1,2.7 µM and 2.07 µM and 2.59 µM,7.38 µM and 4.94 µM and 7.56 µM
CCOC(=O)Cn1nc2ccc(Nc3nc4ccccc4nc3C(=O)OCC)cc2n1,–,> 100 µM
N/C(=N\C(=S)N1CCCCC1)N1CCCCC1,–,> 100 µM
COc1cc(Cn2c3c(c4cc(O)ccc42)C(=O)c2ccccc2C3=O)cc(OC)c1,–,> 100 µM
C=CC1=C(C)C2=NC1=CC1=NC(=C(CC)/C1=C/O)C=C1C=C3C(=O)C(C(=O)OC)C(=C4NC(=C2)C(C)C4CCC(=O)OC/C=C(\C)CCCC(C)CCCC(C)CCCC(C)C)C3=N1 (stereo unspecified) (tested in a mixture with another compound),–,> 100 µM

Structure (SMILES),GI50,TGI
CC(C)C1OCC(CO)CO1 (stereo unspecified),–,> 100 µM
CC1=NN(C(=O)c2ccc(Cl)cc2)C(=O)/C1=C/c1cccc(O)c1,–,> 100 µM
COC(CNC(=O)C(C)NC(=O)C(C)NC(=O)c1ccccc1)OC (stereo unspecified),–,> 100 µM
Cc1ccc(NC2=C(Cl)C(=O)c3nc(C)ccc3C2=O)cc1,3.42 µM,12.7 µM
N#CC1=C(N)Oc2c(sc3c(F)cccc23)C1c1ccc([N+](=O)[O-])cc1 (stereo unspecified),0.503 µM,2.01 µM
C[C@]12CC[C@@H]3c4ccc(O)cc4CC[C@H]3[C@@H]1CC[C@@H]2NS(=O)(=O)c1cccc(Br)c1,6.56 µM,19.8 µM
CCOC(=O)c1sc2nc(SC)nc(Nc3ccc(OC)c(OC)c3)c2c1N,–,> 100 µM
O=C1c2c(Br)sc(Br)c2[C@H]2NC(=S)O[C@@H]12,–,36.4 µM
CC(C)NC(C)Cc1ccccc1 (stereo unspecified),–,> 100 µM
C=C(CO)CC(O)c1ccccc1 (stereo unspecified),–,> 100 µM
Cc1cc(N2CCN(C)CC2)nc(NC2CCCC(Nc3ccnc4cc(Cl)ccc34)C2)n1 (stereo unspecified),2.11 µM,6.64 µM
O=C1OC(=O)C2C3CCC(O3)C12 (stereo unspecified),–,> 100 µM
CCNC1CC(C(C)(C)NCC)CC=C1C (stereo unspecified),–,> 100 µM
COc1cccc(/C=N/n2c(-c3ccccc3)n[nH]c2=O)c1,–,> 100 µM
CCOC(=O)C(=Cc1ccc(Br)cc1)C(=O)OCC,2.37 µM,6.58 µM
CC[n+]1[b-](C(C)(C)C)n(/N=C(\C)C(C)(C)C)[b-](C(C)(C)C)[n+]1CC,–,> 100 µM
CN/N=C(\C)CC(=O)Nc1cccc(Cl)c1C,–,> 100 µM
COc1cc(/C=C2\NC(=O)N(/C=C3\C(=O)Oc4ccccc4C3=O)C2=O)ccc1O,–,> 100 µM
O=C=Nc1ccc(Cc2ccc(N=C=O)cc2)cc1 (tested in a mixture with another compound),> 25 µg/mL,> 25 µg/mL
O=C(c1nsc(Cl)c1Cl)N1CCCCC1,–,> 100 µM
COc1ccc(OC)c(-c2nc3sccn3c2/C=C2/C(=O)Nc3ccccc32)c1,1.69 µM,29.5 µM

Structure (SMILES),GI50,TGI
CC(=O)N1c2ccccc2C23CCN4CC5=CCOC(O)C(C5CC42)C13 (stereo unspecified),–,> 100 µM
O=C1OC(c2ccc([N+](=O)[O-])cc2)=N/C1=C\c1ccc(O)cc1,–,> 100 µM
CC1C(c2ccccc2O)c2cc3c(cc2OC1N1CCCC1)OCO3 (stereo unspecified),–,> 100 µM
COc1cc2c(cc1OC)-c1c(cc(OC)c(OC)c1OC)C2=O,–,> 100 µM
C=CCSc1n[nH]c(-c2cccs2)n1,> 100 µM,> 100 µM
CCCCCCCCCCCCCCCCCCNc1ccn(C2OC(CO)C(OP(=O)(O)OCC3CCC(n4ccc(N)nc4=O)O3)C2O)c(=O)n1 (stereo unspecified),–,> 100 µM
Cn1cc(-c2ccc(CCOC3CCCCO3)cc2)c2c(C#N)cccc21 (stereo unspecified),–,> 100 µM
CC[C@H](CCCCC1CC[C@@H]2CC(=O)C[C@H]12)OC (stereo partly specified),–,> 100 µM
CC(=O)CN=C(C)NNc1ccc([N+](=O)[O-])cc1[N+](=O)[O-],–,> 100 µM
CN(C)CCCC1(c2ccc(F)cc2)OCc2cc(-c3ccc4cc[nH]c4c3)ccc21 (stereo unspecified),1.85 µM,3.62 µM
C/C=C(/C)C(=O)OC1C=C(CO)C(=O)C(OC(=O)/C(C)=C\C)C1C(C)C (stereo unspecified),1.55 µM,2.91 µM
O=C(NCCNCCO)c1ccc2oc3cc4ccccc4c(=O)n3c2c1,13.2 µM,31.4 µM
COc1cc2c(cc1OC)-c1cc3ccccc3c(=O)n1CCC2,–,52.6 µM
CC(C)(C)SC1=CCC[C@@H](P(=O)(c2ccccc2)c2ccccc2)[C@@H]2CCC[C@@H]12,–,32 µM
C(/COc1cccnc1)=N\NC1=NCCN1,–,> 100 µM
CCCCc1ccc(Nc2nc(Cl)c3[nH]cnc3n2)cc1,–,> 100 µM
CC1=COC2=C(C)C(=O)C(=O)c3c(C)ccc1c32,–,9.84 µM
Cc1cc2c3c(ccc4ncc(c43)CN2c2ccc(NS(C)(=O)=O)cc2)[nH]1,–,39.9 µM
COC(=O)c1c2c(c(C)[n+]([O-])c1C)C(=O)C(NCc1ccc(F)c(Cl)c1)=CC2=O,1.88 µM,6.35 µM
O=C1C(Nc2ccccn2)=C(I)C(=O)c2ncccc21,1.44 µM,2.75 µM
